Reference: PubChem BioAssay AID1345082 (National Center for Advancing Translational Sciences (NCATS), 2018)
Where “and” joins values, the source holds several entries; their conditions need not be identical. Identical values can stand only once. Out of some 94,000 compounds screened, about 4,000 (4.3%) were called active. Inconclusive results, whose numbers are uncertain, are shown with a selection of clear calls. Calls follow the shape of the dose curve; as a rule, active = well fitted inhibition curve with a large enough effect; inconclusive = small, poorly fitted or top-dose-only effect; inactive = no such curve, though single readings can be large or run the other way. Where the call is inconclusive, the potency comes from a doubtful curve fit.

test: Cytotoxic Profiling in NIH 3T3 Cell Line of Diverse Libraries Using Quantitative High-Throughput Screening; conditions: NIH 3T3 viability, CellTiter-Glo ATP luminescence, 48-72 h; activity change, negative = cytotoxicity: at 96.7 µM (top of the series) unless noted; series mostly up to 96.7 µM; also: nearly all actives have a fitted effect of over 55% in size
How it was run: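 Luminescent ATP readout (CellTiter-Glo, 10 min RT) after 48 or 72 hr compound exposure of NIH 3T3 cells seeded at 400 cells/well in 1536-well format; quantitative HTS.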
% is scaled to controls: 0 for no effect and ±100 for the full control effect; potency is read from the fitted curve at half-maximal effect; tags tell the direction and shape of the fitted curve.

SMILES	Potency	activity change, negative = cytotoxicity
COc1ccc(-c2nc(-c3c(C)noc3C)cc3c2cc(-c2ccccc2)n3C)cn1	active: 50.1 µM	
CCn1ccc(C(=O)N2CCC(c3noc(-c4ccccc4)n3)C2)n1 (centres undefined)	inconclusive: 39.8 µM [inhibitor, partial curve]	
CC(C)Cc1cc(C(=O)N2CCCC(C)(c3ccccc3)C2)no1 (centres undefined)	inconclusive: 44.7 µM [inhibitor, partial curve, poor fit]	
O=C(c1ccc(Oc2ccccc2)cc1)N1CCNc2cnc(Nc3cccc(C(F)(F)F)c3)nc2C1	active: 25.1 µM	
CSCCC(=O)N[C@H]1CN(c2cc(C3CC3)ncn2)C[C@@H]1C1CC1		inactive: -3.98%
COc1cc(-c2cnc3n[nH]c(-c4ccc(F)cc4C)c3n2)ccn1	inconclusive: 56.2 µM [inhibitor, partial curve, poor fit]	
CN(C)C[C@@H]1CN(C2CCOCC2)C[C@H]1NC(=O)c1cc2ccccc2[nH]1	inconclusive: 56.2 µM [inhibitor, partial curve, poor fit]	
CC1(C(=O)NC2CCOCC2)CN(Cc2ccccc2)Cc2ccc(Nc3ccccc3)nc21 (centres undefined)	active: 31.6 µM	
O=C(Nc1ccc(Cl)cc1)NC1CCN(c2ccc3nnc(-c4ccccc4)n3n2)C1 (centres undefined)	inconclusive: 11.2 µM [inhibitor, full curve]	
O=C(C1CCN(Cc2ccccc2-c2ccccc2F)CC1)N1CCCC1	inconclusive: 79.4 µM [inhibitor, single point]	
O=c1c2ccccc2cnn1Cc1nc(-c2ccc3nc[nH]c3c2)no1	inconclusive: 50.1 µM [inhibitor, partial curve, poor fit]	
CC(C)c1ccc(CN2CCC3(CC2)COCCN3C(=O)c2ccc3[nH]ncc3c2)cc1	inconclusive: 100 µM [inhibitor, partial curve, poor fit]	
CN1CCN(c2cc(=O)c3ccnc(-c4ccc(Cl)cc4)c3o2)CC1	inconclusive: 8.91 µM [inhibitor, full curve, poor fit]	
O=C(CN1C(=O)CNC1=O)N[C@H](c1ccc2c(c1)CCO2)C1CC(O)C1 (some centres undefined)		inactive: 2.1%
C=CCNC(=O)c1coc(COc2ccc3c(c2)C(c2cccc(C)c2)N(C(=O)C2CC2)CC3)n1 (centres undefined)	inconclusive: 12.6 µM [inhibitor, full curve, poor fit]	
O=C(NC1COC1)c1ccc2c(c1)C1(CCN(CC3CC3)C1)CN2Cc1ccccc1 (centres undefined)		inactive: -25.2% [at 138 µM]
COCCCNc1nc(-c2cccnc2)nc2c1CNC2	inconclusive: 89.1 µM [inhibitor, partial curve, poor fit]	
O=C(Nc1ccc(Cl)cc1)N1CCc2nc(C3CC3)nc(-c3ccc(Cl)cc3)c2C1	inconclusive: 28.2 µM [inhibitor, full curve]	
O=C([C@@H]1C[C@H](Oc2ccccc2)CN1C(=O)CN1CCCCCC1)N1CCCC1	inconclusive: 79.4 µM [inhibitor, partial curve, poor fit]	
CS(=O)(=O)N1CCC(c2nc(CCOCC3CC3)no2)C1 (centres undefined)		inactive: 2.81%

SMILES	Potency	activity change, negative = cytotoxicity
COc1ccc(Cl)cc1C(=O)NC1CCN(c2cc(-c3ccc(F)cc3)[nH]n2)C1 (centres undefined)	inconclusive: 50.1 µM [inhibitor, partial curve, poor fit]	
CC(C)c1nc2c(c(-c3ccc(Cl)cc3)n1)CCN(Cc1ccc(C#N)cc1)CC2	inconclusive: 50.1 µM [inhibitor, partial curve, poor fit]	
COc1ccc(-c2cnc([C@@H]3COCCN3Cc3nc4ccccc4n3C)[nH]2)cc1	inconclusive: 89.1 µM [inhibitor, partial curve, poor fit]	
Cc1cccc(C(=O)N2CCCC(c3noc(COc4ccccc4)n3)C2)c1 (centres undefined)	inconclusive: 50.1 µM [inhibitor, partial curve, poor fit]	
Fc1ccccc1-c1noc(N2CCOCC2)n1		inactive: -18.5%
Cn1cccc1-c1noc(C2CCN(C(=O)CCn3cnc4ccccc43)CC2)n1		inactive: -37.8%
CN(C)c1cccc(C(=O)NC2CCN(c3cc(-c4ccc(F)cc4)[nH]n3)CC2)c1	inconclusive: 39.8 µM [inhibitor, partial curve]	
O=C(c1ccccc1F)N1CCCC2(C1)C(=NC1CCCC1)NC(=O)N2c1cccnc1 (centres undefined)		inactive: -21.1%
O=C(O)c1ccnc(-c2ccnc(NCCCN3CCCC3=O)n2)c1		inactive: -11.4%
Cc1ccc(-c2cc(C(=O)NCc3ccc4c(c3)OCO4)c3cnn(C)c3n2)c(C)c1	inconclusive: 50.1 µM [inhibitor, partial curve, poor fit]	
COc1cccc(-c2cn3cc(C(=O)NCc4cccc(C(F)(F)F)c4)nc3s2)c1	inconclusive: 31.6 µM [inhibitor, partial curve]	
F[C@@H]1CN(Cc2nccs2)C[C@@H]1OCc1nc2ccncc2[nH]1	inconclusive: 126 µM [inhibitor, partial curve, poor fit]	
O=C(NCc1nnc2c(-c3nc(C4CC4)no3)cccn12)c1ccc2ccccc2n1	inconclusive: 50.1 µM [inhibitor, partial curve, poor fit]	
COC(=O)c1ccc(CN2C(=O)[C@@H]3C[C@@H](O)CN3C3(CN(Cc4ccc(OC)c5ccccc45)C3)C2=O)cc1	active: 79.4 µM	
Cc1cc(Cl)ccc1-n1nc(C)c([C@@H]2C=C[C@@H](NC(=O)CCC(=O)O)C2)c1C		inactive: 0.697% [at 138 µM]
Cc1ncc2n1C(=O)N(C1CCN(Cc3cccc4ccccc34)CC1)C2	inconclusive: 10 µM [inhibitor, partial curve, poor fit] and inconclusive: 44.7 µM [inhibitor, partial curve, poor fit]	
COCCN1CCCCCC(O)c2cc(C(=O)NCCCc3ccccc3)ccc21 (centres undefined)	inconclusive: 50.1 µM [inhibitor, partial curve, poor fit]	
O=C(NC1CCCCC1)C1CCc2nnc(CN[S+](=O)([O-])c3ccccc3Cl)n21 (centres undefined)		inactive: -16.1%
Cc1ccc(Nc2ccnc(N3CCC(C(=O)NCc4ccc(F)cc4)CC3)n2)cc1	inconclusive: 39.8 µM [inhibitor, partial curve, poor fit]	
